Results published in paper PMC4336329 (PLoS ONE, 2015).
Among all 310,000 compounds or so, about 14,000 (4.5%) showed an effect of 50% or more. Effects have a minus sign here. The list shows a part of the results.

Target: human ether-à-go-go-related gene (hERG) potassium channel (human, UniProt Q12809)
Assay: primary screen, population patch clamp on CHO cells stably expressing hERG
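Further: peak tail current of the secondary pulse compared with the same well before compound.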

Sequence of human ether-à-go-go-related gene (hERG) potassium channel (Q12809 whole entry, looked up): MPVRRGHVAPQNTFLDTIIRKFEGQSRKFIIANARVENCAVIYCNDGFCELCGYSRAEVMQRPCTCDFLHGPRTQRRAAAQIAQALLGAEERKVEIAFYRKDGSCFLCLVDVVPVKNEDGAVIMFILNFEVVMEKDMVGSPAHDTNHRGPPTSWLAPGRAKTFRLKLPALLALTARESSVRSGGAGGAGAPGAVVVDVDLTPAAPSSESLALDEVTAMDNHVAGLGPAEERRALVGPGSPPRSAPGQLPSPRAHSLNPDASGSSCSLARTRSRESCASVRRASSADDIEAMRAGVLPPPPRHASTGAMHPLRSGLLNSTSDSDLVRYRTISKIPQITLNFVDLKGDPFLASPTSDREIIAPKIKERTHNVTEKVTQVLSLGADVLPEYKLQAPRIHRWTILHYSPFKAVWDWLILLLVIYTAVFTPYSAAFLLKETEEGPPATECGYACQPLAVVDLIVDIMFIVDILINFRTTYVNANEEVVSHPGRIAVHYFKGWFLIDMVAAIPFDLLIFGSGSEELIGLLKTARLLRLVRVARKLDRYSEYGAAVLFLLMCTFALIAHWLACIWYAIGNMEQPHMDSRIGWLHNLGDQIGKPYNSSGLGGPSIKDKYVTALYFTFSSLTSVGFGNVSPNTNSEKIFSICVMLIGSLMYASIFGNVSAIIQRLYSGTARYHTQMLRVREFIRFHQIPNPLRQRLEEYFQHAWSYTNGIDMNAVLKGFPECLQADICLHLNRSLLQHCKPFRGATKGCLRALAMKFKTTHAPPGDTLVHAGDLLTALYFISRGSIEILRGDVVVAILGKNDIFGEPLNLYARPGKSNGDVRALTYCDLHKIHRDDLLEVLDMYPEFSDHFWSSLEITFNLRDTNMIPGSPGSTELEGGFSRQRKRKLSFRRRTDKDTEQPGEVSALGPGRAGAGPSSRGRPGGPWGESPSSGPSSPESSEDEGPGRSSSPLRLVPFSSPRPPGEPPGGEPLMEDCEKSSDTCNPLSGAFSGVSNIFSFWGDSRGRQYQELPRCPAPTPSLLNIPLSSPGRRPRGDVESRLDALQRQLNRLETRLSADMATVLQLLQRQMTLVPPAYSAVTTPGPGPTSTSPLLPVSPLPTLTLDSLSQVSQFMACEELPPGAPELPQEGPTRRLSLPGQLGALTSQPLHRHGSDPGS

SMILES | hERG current change (%, negative = inhibition) at 10uM
O=C(CN1CCCCC1)N/N=C/c1ccccc1OCc1ccccc1 | -30.2%
CCN(Cc1ccccc1)C(=O)C1CCN(CC2CC=CCC2)CC1.O=C(O)C(=O)O (centres unmarked) | -46.9%
CC(=O)Nc1ccc(S(=O)(=O)NNC(=S)NCc2ccco2)cc1 | 12.1%
COC(=O)C1C(O)=C(C=Nc2ccc3ccccc3c2)C(=O)CC1(C)C (centres unmarked) | -8.23%
O=C(O)CC(C(=O)N(c1ccccc1)c1ccccc1)N1CCOCC1 (centres unmarked) | 3.94%
COc1cc2c(c(OC)c1OC)-c1c(cc3c(c1OC)OCO3)C1OC2[C@@H](C)[C@H]1C (some centres unmarked) | -4.76%
Cc1ccc(/C=N/N2CCN(c3ccc(Cl)cc3)CC2)o1 | 6.28%
CCOC(=O)CC(=O)CSc1nc(-c2cccnc2)ccc1C#N | 17.5%
COCCNC(=O)Nc1ccc2nc(-c3ccco3)c(-c3ccco3)nc2c1 | 4.08%
O=C(CSc1nnc(CNC(=O)c2c(F)cccc2Cl)o1)NCc1ccc(F)cc1 | 7.58%
COc1ccccc1CNC(=O)Cn1cc(Br)ccc1=O | 6.88%
CCOc1ccc(NC(=O)N2CCC(NC(=O)C(Cc3ccc(OC)c(OC)c3)NC(C)=O)CC2)cc1 (centres unmarked) | 8.15%
CCn1nc(C)c(/C=N/NC(=O)CSc2ccccn2)c1C | 12.7%
O=C(CCc1nnc(CCCc2ccccc2)o1)NCCc1ccco1 | -10.5%
Cc1ccc(-n2c(C)nc3c(cnn3-c3ccccc3Cl)c2=O)cc1C | 10.6%
Cc1cc(C)n2nc(C(=O)N/N=C/c3ccc(Cl)cc3)nc2n1 | -37.2%
COc1ccc(S(=O)(=O)Nc2cc3c4c(oc3c3ccccc23)CC(C)(C)CC4=O)cc1 | -3.05%
Cc1nnc(NC(=O)C2CC(=O)N(c3ccccc3)C2)s1 (centres unmarked) | 3.67%
CCOc1ccccc1NC(=O)c1sc2ncn(CC(=O)N3CCOCC3)c(=O)c2c1C | -3.36%
CC(C)Cc1nnc(NC(=O)CN2C(=O)c3ccccc3C2=O)s1 | 26.9%
CC1C(=O)Nc2ccc(S(=O)(=O)N3CCN(c4cccc(C(F)(F)F)c4)CC3)cc2NC1=O (centres unmarked) | 5.06%
CC1=NN(/C(=N\c2nnc(C)s2)Nc2ccc(C(C)(C)C)cc2)[C@H](c2ccc(C)cc2)S1 | 5.12%
COc1ccc(-c2n[nH]c3c2C(c2ccc(OC)c(OC)c2)N(c2ccccc2)C3=O)cc1 (centres unmarked) | 3.73%
Cc1ccccc1NC(=O)c1sc(NC(=O)C2CC2)nc1C | 11.2%
CCCN1C(=O)c2ccc(C(=O)Nc3ccccc3C(=O)O)cc2C1=O | 29.2%
CCOC(=O)C1=C(C)N(C)C(=O)NC1c1c(C)nn(-c2ccccc2)c1C (centres unmarked) | 4.67%
O=C(C(=O)c1cccnc1)c1cccnc1 | 19.9%

SMILES | hERG current change (%, negative = inhibition) at 10uM
Cc1ccc(SCCC(=O)NCc2ccccn2)cc1 | -14.6%
O=c1c(-c2ccnn2-c2cccc(Cl)c2)cnc2n1CCS2 | 1.04%
NS(=O)(=O)c1cc(C(=O)OCC(=O)c2ccc3c(c2)OCCO3)ccc1Cl | -0.0168%
Cc1cc(C(=O)Nc2ccc(C)c(S(=O)(=O)N3CCOCC3)c2)c2ccccc2n1 | -13.6%
C/C(Cc1ccccc1)=N\NC(=O)CNC(=O)c1ccc(F)cc1 | 8.96%
CCOC(=O)/C=C1\SCC(=O)N1CC(=O)Nc1ccc(OC)c(OC)c1 | 7.5%
COc1ccc(Br)cc1CNC(=O)C1CCCN(S(=O)(=O)N2CC(C)CC(C)C2)C1 (centres unmarked) | 13.8%
CCCCCOc1ccc(/C=C/c2c([N+](=O)[O-])c(=O)n(C)c(=O)n2C)cc1 | 9.47%
COC(=O)c1ccc(Oc2c(C(F)(F)F)oc3c(CN4CCN(C)CC4)c(O)ccc3c2=O)cc1 | 14.3%
CCSCCOC(=O)C1=C(C)N(C)C(=O)NC1c1ccc2c(c1)OCO2 (centres unmarked) | 5.29%
Cn1c(CO)cnc1S(=O)(=O)Cc1ccc([N+](=O)[O-])cc1 | 7.66%
COc1ccc(OC)c(NC(=O)CC(NC(C)=O)c2ccccc2)c1 (centres unmarked) | 17.6%
COc1ccccc1C(=O)Nc1ccnn1C1CCN(C(=O)C(C)(C)C)CC1 | -50.4%
COc1ccccc1OCCCCN1CCN(C(c2ccccc2)c2ccccc2)CC1.O=C(O)C(=O)O | -73%
O=C(COc1ncnc2sccc12)Nc1cccc(S(=O)(=O)N2CCOCC2)c1 | -2.77%
CC(=O)c1cccc(N(CC(=O)NC2CCCCC2)C(=O)CCC(=O)Nc2nc(C)cs2)c1 | -8.84%
CCOC(=O)c1oc2ccccc2c1NC(=O)c1ccccc1OC | 16.6%
CN(Cc1nc2ccccc2n1C)C(=O)c1cccs1 | -8.67%
Cc1ccc2cc(NC(=O)c3ccccc3C)ccc2n1 | 11.3%
Cc1ccc(-c2csc3ncnc(NCCN4CCOCC4)c23)cc1 | -15.6%
CNC(=O)/C(C#N)=C\c1ccc(CNS(=O)(=O)c2ccccc2)o1 | -1.95%
CN(Cc1ccccc1)C(=O)CC(=O)N(C)Cc1ccccc1 | -3.79%
Cc1ccc(S(=O)(=O)N2CCN(C(=O)CSc3nc4ccccc4c(=O)[nH]3)CC2)cc1 | -1.1%
CC(=O)OC[C@H]1O[C@@H](Sc2cccc3cccnc23)[C@H](OC(C)=O)[C@@H](OC(C)=O)[C@H]1OC(C)=O | -2.95%
O=C(O)CCSc1nc2ccccc2s1 | 6.98%
CCN(CC)S(=O)(=O)c1ccc(NC(=O)Nc2cccc(C(F)(F)F)c2)cc1 | -2.49%
